# The list shows a part of the results.
# B1: LSectin (Mus musculus), Q8BNX1 (protein)
# chain: MNTGEYNKLGSAIEEVSRGQLGRWECYKQRLFFLVLALLVATVLWALILSTLLSSASSKLRVLLSHQDLLRTNASEQKMTLSSLKDDIGACRNCCSVTKAQLQTTLAEFKDIQAKLMEQESILKELQERVTQDLAKASRDRENIRSELFQALEAVKRQNSSCEQCPPSWLPFQGSCYYFSETQATWDTAQSYCGGQGAHLVIVRGLNEQGFLSQHTRGRGYWLGLRAVRHLNKIQGYRWVDGASLNFSHWNSGEPNDSRGHEDCIMMLHSGLWNDAPCTNERDGWICEKRSSCY
# How the values were obtained:
# Experiment in all cases: glycan array binding signal (z-score within array); higher = stronger binding
# Conditions in all cases: glycan notation: IUPAC condensed, linker removed
# Gal3S6S(b1-4)GlcNAc = molecular target: Gal3S6S(b1-4)GlcNAc
# How it was run: (§1)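 Columns mapping to the same glycan were averaged after glycan names were converted to IUPAC-condensed notation. The data come from 3228 arrays in the Consortium for Functional Glycomics database, limited to those with an available protein sequence. Binding is reported as a within-array Z-score averaged across arrays of one protein sequence and across linkers.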
# Gal3S6S(b1-4)GlcNAc6S = molecular target: Gal3S6S(b1-4)GlcNAc6S
# How it was run: as §1
# Gal4S(b1-4)GlcNAc = molecular target: Gal4S(b1-4)GlcNAc
# How it was run: as §1
# Gal4S6S(b1-4)GlcNAc = molecular target: Gal4S6S(b1-4)GlcNAc
# How it was run: as §1
# Gal6S(b1-3)GlcNAc = molecular target: Gal6S(b1-3)GlcNAc
# How it was run: as §1
# Gal6S(b1-3)GlcNAc6S = molecular target: Gal6S(b1-3)GlcNAc6S
# How it was run: as §1
# Gal6S(b1-4)Glc = molecular target: Gal6S(b1-4)Glc
# How it was run: as §1
# Gal6S(b1-4)Glc6S = molecular target: Gal6S(b1-4)Glc6S
# How it was run: as §1
# Gal6S(b1-4)GlcNAc = molecular target: Gal6S(b1-4)GlcNAc
# How it was run: as §1
# Gal6S(b1-4)GlcNAc6S = molecular target: Gal6S(b1-4)GlcNAc6S
# How it was run: as §1
# GalNAc(a1-3)Gal = molecular target: GalNAc(a1-3)Gal
# How it was run: as §1
# GalNAc(a1-3)GalNAc = molecular target: GalNAc(a1-3)GalNAc
# How it was run: as §1
# [1] = molecular target: GalNAc(a1-3)GalNAc(a1-3)Gal(a1-4)Gal(b1-4)GlcNAc
# How it was run: as §1
# [2] = molecular target: GalNAc(a1-3)GalNAc(b1-3)Gal(a1-4)Gal(b1-4)Glc
# How it was run: as §1
# GalNAc(b1-3)Gal = molecular target: GalNAc(b1-3)Gal
# How it was run: as §1
# [3] = molecular target: GalNAc(b1-3)Gal(a1-4)Gal(b1-4)GlcNAc
# How it was run: as §1
# [4] = molecular target: GalNAc(b1-3)Gal(a1-4)Gal(b1-4)GlcNAc(b1-3)Gal(b1-4)Glc
# How it was run: as §1
# [5] = molecular target: GalNAc(b1-3)Gal(a1-6)Gal(b1-4)Glc
# How it was run: as §1
# GalNAc(b1-3)GalNAc = molecular target: GalNAc(b1-3)GalNAc
# How it was run: as §1
# GalNAc(b1-4)GlcNAc = molecular target: GalNAc(b1-4)GlcNAc
# How it was run: as §1
# [6] = molecular target: GalNAc(b1-4)GlcNAc(b1-2)Man(a1-3)[GalNAc(b1-4)GlcNAc(b1-2)Man(a1-6)]Man(b1-4)GlcNAc(b1-4)GlcNAc
# How it was run: as §1
# GalNAc(b1-6)GalNAc = molecular target: GalNAc(b1-6)GalNAc
# How it was run: as §1
# Glc(a1-4)Glc = molecular target: Glc(a1-4)Glc
# How it was run: as §1
# Glc(a1-6)Glc(a1-6)Glc = molecular target: Glc(a1-6)Glc(a1-6)Glc
# How it was run: as §1
# Glc(b1-4)Glc = molecular target: Glc(b1-4)Glc
# How it was run: as §1
# Glc(b1-6)Glc = molecular target: Glc(b1-6)Glc
# How it was run: as §1
# GlcA(b1-3)Gal = molecular target: GlcA(b1-3)Gal
# How it was run: as §1
# GlcA(b1-3)GlcNAc = molecular target: GlcA(b1-3)GlcNAc
# How it was run: as §1
# GlcA(b1-6)Gal = molecular target: GlcA(b1-6)Gal
# How it was run: as §1
# [7] = molecular target: GlcNAc(a1-3)Gal(b1-4)GlcNAc
# How it was run: as §1
# [8] = molecular target: GlcNAc(a1-4)Gal(b1-3)GlcNAc
# How it was run: as §1
# [9] = molecular target: GlcNAc(a1-4)Gal(b1-4)GalNAc
# How it was run: as §1
# [10] = molecular target: GlcNAc(a1-4)Gal(b1-4)GlcNAc
# How it was run: as §1
# [11] = molecular target: GlcNAc(a1-4)Gal(b1-4)GlcNAc(b1-3)Gal(b1-4)Glc
# How it was run: as §1
# [12] = molecular target: GlcNAc(a1-4)Gal(b1-4)GlcNAc(b1-3)Gal(b1-4)GlcNAc
# How it was run: as §1
# [13] = molecular target: GlcNAc(a1-4)Gal(b1-4)GlcNAc(b1-3)Gal(b1-4)GlcNAc(b1-3)Gal(b1-4)GlcNAc
# How it was run: as §1
# [14] = molecular target: GlcNAc(a1-4)Gal(b1-4)GlcNAc(b1-3)Gal(b1-4)[Fuc(a1-3)]GlcNAc(b1-3)Gal(b1-4)[Fuc(a1-3)]GlcNAc
# How it was run: as §1
binder,measurement,setting,value
B1,glycan array binding signal (z-score),Gal3S6S(b1-4)GlcNAc,-0.17
same,glycan array binding signal (z-score),Gal3S6S(b1-4)GlcNAc6S,-0.152
same,glycan array binding signal (z-score),Gal4S(b1-4)GlcNAc,-0.174
same,glycan array binding signal (z-score),Gal4S6S(b1-4)GlcNAc,-0.164
same,glycan array binding signal (z-score),Gal6S(b1-3)GlcNAc,-0.188
same,glycan array binding signal (z-score),Gal6S(b1-3)GlcNAc6S,-0.185
same,glycan array binding signal (z-score),Gal6S(b1-4)Glc,-0.168
same,glycan array binding signal (z-score),Gal6S(b1-4)Glc6S,-0.151
same,glycan array binding signal (z-score),Gal6S(b1-4)GlcNAc,-0.138
same,glycan array binding signal (z-score),Gal6S(b1-4)GlcNAc6S,-0.135
same,glycan array binding signal (z-score),GalNAc(a1-3)Gal,-0.123
same,glycan array binding signal (z-score),GalNAc(a1-3)GalNAc,-0.164
same,glycan array binding signal (z-score),[1],-0.19
same,glycan array binding signal (z-score),[2],-0.191
same,glycan array binding signal (z-score),GalNAc(b1-3)Gal,-0.158
same,glycan array binding signal (z-score),[3],-0.139
same,glycan array binding signal (z-score),[4],-0.189
same,glycan array binding signal (z-score),[5],-0.185
same,glycan array binding signal (z-score),GalNAc(b1-3)GalNAc,-0.146
same,glycan array binding signal (z-score),GalNAc(b1-4)GlcNAc,-0.18
same,glycan array binding signal (z-score),[6],-0.18
same,glycan array binding signal (z-score),GalNAc(b1-6)GalNAc,-0.184
same,glycan array binding signal (z-score),Glc(a1-4)Glc,-0.16
same,glycan array binding signal (z-score),Glc(a1-6)Glc(a1-6)Glc,-0.168
same,glycan array binding signal (z-score),Glc(b1-4)Glc,-0.17
same,glycan array binding signal (z-score),Glc(b1-6)Glc,-0.188
same,glycan array binding signal (z-score),GlcA(b1-3)Gal,-0.169
same,glycan array binding signal (z-score),GlcA(b1-3)GlcNAc,-0.085
same,glycan array binding signal (z-score),GlcA(b1-6)Gal,-0.171
same,glycan array binding signal (z-score),[7],-0.14
same,glycan array binding signal (z-score),[8],-0.185
same,glycan array binding signal (z-score),[9],-0.185
same,glycan array binding signal (z-score),[10],-0.178
same,glycan array binding signal (z-score),[11],-0.178
same,glycan array binding signal (z-score),[12],-0.18
same,glycan array binding signal (z-score),[13],-0.183
same,glycan array binding signal (z-score),[14],-0.14

# Reference: the supplement of paper PMC8728848
